From the antibiotic and cytotoxicity screens of Wong et al. (2023)
Some of the results follow.

Each compound was assayed on HepG2 (assay: cytotoxicity call (relative viability < 0.9)). Conditions: 10 µM.

Row | Structure (SMILES) | cytotoxicity call
1 | C[C@@H]1CN([C@@H](C)CO)C(=O)Cc2cc(NC(=O)NC3CCCCC3)ccc2O[C@H]1CN(C)C(=O)Nc1ccc(C(F)(F)F)cc1 | inactive
2 | COCC(=O)Nc1ccc2c(c1)C(=O)N(C)[C@H]1CC[C@H](CC(=O)N3CCc4ccccc4C3)O[C@@H]1CO2 | inactive
3 | C[C@H]1CCCCO[C@@H](CN(C)Cc2ccccc2)[C@@H](C)CN([C@@H](C)CO)C(=O)c2cc(NC(=O)CCC(F)(F)F)ccc2O1 | inactive
4 | C[C@H]1CCCCO[C@@H](CN(C)C(=O)Nc2ccccc2)[C@@H](C)CN([C@@H](C)CO)C(=O)c2cc(NC(=O)Nc3ccc(F)cc3)ccc2O1 | inactive
5 | Cc1ccc(S(=O)(=O)Nc2ccc3c(c2)C(=O)N([C@@H](C)CO)C[C@H](C)[C@@H](CN(C)S(=O)(=O)c2cccs2)O3)cc1 | inactive
6 | C[C@@H]1CCCCO[C@@H](CN(C)Cc2ccccc2)[C@H](C)CN([C@@H](C)CO)C(=O)c2cc(NC(=O)Cc3ccccc3)ccc2O1 | inactive
7 | COC[C@@H]1CNN1C(=O)OC(C)(C)C | inactive
8 | O=C(CCCCCNC(=O)OCc1ccc(CO[C@H]2C[C@@H](c3ccc(C(F)(F)F)cc3)C=C(C(=O)N3CCN(Cc4ccc5c(c4)OCO5)CC3)O2)cc1)NO | inactive
9 | C[C@H]1CN([C@@H](C)CO)C(=O)Cc2cc(NC(=O)Cn3cnnn3)ccc2O[C@H]1CN(C)C(=O)Nc1cccc2ccccc12 | inactive
10 | COC(=O)[C@@H](NC(=O)Cn1cc(CCC(=O)NO)nn1)c1ccccc1 | inactive
11 | COc1ccc(C#Cc2ccc3c(c2)O[C@@H](CN(C)S(=O)(=O)c2ccccc2F)[C@@H](C)CN([C@@H](C)CO)S3(=O)=O)cc1 | inactive
